# Screen size: about 52,000 compounds; about 1,700 (3.3%) were called active. Cut-off read from the data, not from the text of the source: active = survival mostly below about 52% (no sharp cut-off); inactive = mostly above about 56%. This is one part of the list.
# Tested on: Wild type
# Assay: growth inhibition of S. aureus wild type versus tarO mutant, primary screen, teichoic acid synthesis inhibitors, RN4220, OD600 (AID 463173)
# Settings: S. aureus RN4220 wild type/DeltatarO growth, OD600, 18 h, stronger effect = lower value, screened at 18.75 µg/mL (by protocol)
row,Compound,survival
1,COc1ccc(CC(=O)N2CCc3cc(OC)c(OC)cc3C2COc2cc(C)cc(C)c2)cc1OC (stereo not given),inactive: 128%
2,Cc1cc(C)cc(NC(=O)CCS(=O)(=O)c2cccc3nsnc23)c1,inactive: 64%
3,CCOC(=O)c1ccc(N2C(=O)c3n[nH]c(-c4ccco4)c3C2c2ccc(C)cc2)cc1 (stereo not given),inactive: 32%
4,CCOc1ccc(CCNC(=O)CN2CCN(Cc3ccc(Cl)cc3)C2=O)cc1OCC,inactive: 86%
5,CC(=O)c1ccc(NS(=O)(=O)c2cccc(S(=O)(=O)c3ccc(Cl)cc3)c2)cc1,inactive: 137%
6,Cc1cccc(C)c1Nc1nn2c(=O)c3cc4c(cc3nc2s1)OCO4,inactive: 78%
7,Cc1cccc(NC(=O)CSc2ccc(-c3ccccn3)nn2)c1,inactive: 108%
8,CCc1ccc(N(CC)C(=O)c2cc3c(=O)oc4ccc(C)cc4c3s2)cc1,inactive: 66%
9,COc1cccc(NC(=O)C(=O)NCC(c2ccc3c(c2)OCO3)N2CCN(C)CC2)c1 (stereo not given),inactive: 60%
10,CCc1ccc(-c2cn3c(n2)sc2cc(C(=O)NC4CCCCC4)ccc23)cc1,inactive: 98%
11,COc1cccc(-c2nc(S(=O)(=O)c3ccc(Cl)cc3)c(NCc3ccccc3)o2)c1,inactive: 129%
12,COc1cccc(C(=O)Nc2cccc(OCc3cc(=O)n4c5c(sc4n3)CCCC5)c2)c1,inactive: 73%
13,CC(=O)Nc1ccc(NS(=O)(=O)c2c(C(=O)N3CCC(C)CC3)c(C)n(C)c2C)cc1,active: -3%
14,CCCCN(CC)CCCNC(=O)c1cc2c(=O)[nH]c3ccccc3c2n1C,inactive: 79%
15,COc1ccc(NC(=O)CCCSc2nc(-c3ccco3)cc(C(F)(F)F)n2)cc1OC,inactive: 52%
16,COCCNc1oc(-c2ccccc2)nc1S(=O)(=O)c1ccc(Br)cc1,inactive: 55%
17,COc1ccc2oc(=O)c(C(=O)NCCc3c(C)[nH]c4ccc(F)cc34)cc2c1,inactive: 77%
18,COc1ccc2sc(N(Cc3cccnc3)C(=O)c3ccc4c(c3)OCCO4)nc2c1,inactive: 73%
19,COc1ccccc1NC(=O)CC1COc2ccccc2O1 (stereo not given),inactive: 103%
20,O=C(Nc1ccc(F)c(Cl)c1)N1CC=C(c2c[nH]c3ccccc23)CC1,inactive: 73%
21,Cn1c(=O)oc2cc(S(=O)(=O)N3CCCC(C(=O)NCc4ccc(F)cc4)C3)ccc21 (stereo not given),inactive: 132%
22,CC(C)CCNC(=O)c1cc2cc(S(=O)(=O)N3CCCCC3)ccc2n1C,inactive: 74%
23,O=C(O)CSC1=NC2CCCCC2N1 (stereo not given),inactive: 108%

row,Compound,survival
1,O=C(NCCc1ccccc1Cl)c1sc2ncccc2c1-n1cccc1,inactive: 148%
2,Cn1c2ccccc2c2nnc(SCC(N)=O)nc21,inactive: 116%
3,CCC(=O)N1c2ccccc2CC1C(=O)NCCc1ccccc1 (stereo not given),inactive: 66%
4,COc1cccc(Cn2nnc3c(=O)[nH]c(C4CCN(C(=O)c5ccccc5Cl)CC4)nc32)c1,inactive: 14%
5,CCC(=O)Nc1ccccc1-c1nc2ccccc2n(CC(=O)c2ccc(C)cc2)c1=O,inactive: 84%
6,CSc1ncc(Cl)c(C(=O)Nc2c(C(=O)Nc3cccc(Cl)c3)oc3ccccc23)n1,inactive: 86%
7,Cc1ccc(N2CCN(C(=O)c3cnc(N4CCCCC4)c4ccccc34)CC2)c(C)c1,inactive: 82%
8,COc1ccc(CNC(=O)CCCN2C(=O)COc3ccc(C)cc32)cc1,inactive: 122%
9,O=C(NCc1ccccc1Br)c1cnc2sc(N3CCCCCC3)nn2c1=O,inactive: 70%
10,CC1=C(C(N)=O)C(c2ccccc2Br)n2ncnc2N1 (stereo not given),inactive: 80%
11,COc1ccc(-n2nc(C(=O)N3CCCC(C)C3)c3c4ccccc4n(C)c3c2=O)cc1Cl (stereo not given),inactive: 77%
12,CCOC(=O)c1ccc(NC(=O)CSc2c3c(nc4cc(Cl)ccc24)CCCC3)cc1,inactive: 79%
13,COc1cc(OC)c(NC(=O)CCCn2nc(C)c3c(C)n(-c4ccccc4)nc3c2=O)cc1Cl,active: 0%
14,Cc1nn2c(C)c(C(=O)NCc3ccco3)cnc2c1-c1ccccc1,inactive: 131%
15,Cc1nn(C(=O)c2ccc(Cl)cc2)c(C)c1S(=O)(=O)N1CCCCCC1,inactive: 87%
16,CCN(CC)c1nc2ccccc2nc1C(=O)Nc1cc(OC)c(OC)c(OC)c1,inactive: 126%
17,O=C(NC1CC(=O)N(c2ccccc2)C1)c1ccc(S(=O)(=O)N2CCCCC2)cc1 (stereo not given),active: -1%
18,CCn1c(SCC(=O)NC2CCCC2)nnc1-c1ccccc1,inactive: 98%
19,Cc1ccc(N2CCn3c2nc2c3c(=O)n(CCCc3ccccc3)c(=O)n2C)cc1C,inactive: 83%
20,COc1ccc(OCC(=O)NCC(c2ccc(OC)cc2)N2CCCCC2)cc1 (stereo not given),inactive: 87%
21,COc1ccc(C2C(C(=O)Nc3cccnc3)=C(C)Nc3nc(-c4ccccc4)nn32)cc1OC (stereo not given),inactive: 67%
22,O=c1[nH]c(=O)n(C2CCCCC2)c(O)c1C1=Nc2ccccc2SC(c2ccccc2)C1 (stereo not given),inactive: 105%
23,Cc1cccc(OCC(=O)N(Cc2ccc(C(C)(C)C)cc2)Cc2ccco2)c1,inactive: 78%

row,Compound,survival
1,COc1ccccc1NC(=O)C1=C(C)Nc2nc(SCc3ccccc3Cl)nn2C1c1ccccn1 (stereo not given),inactive: 142%
2,CN(C)c1ccc(/C=C/c2noc(-c3ccccc3O)n2)cc1,inactive: 98%
3,Cc1ccc(C(c2cccc(Br)c2)c2c(C)[nH]c3ccccc23)s1 (stereo not given),inactive: 109%
4,COc1cc(OC)cc(C(=O)N2CCN(C(=O)COc3ccccc3)CC2)c1,inactive: 64%
5,COCCn1c(SCC(=O)N2CCCCC2C)nc2sc(C)c(C)c2c1=O (stereo not given),inactive: 103%
6,CC(C)c1ccc(NC(=O)C(C)N(c2ccccc2)S(C)(=O)=O)cc1 (stereo not given),inactive: 86%
7,O=c1c2ccccc2n2c(-c3ccc(Cl)cc3)nnc2n1CCc1ccccc1,inactive: 84%
8,CSc1ccc(CCNS(=O)(=O)c2ccc3c(c2)C(C)(C)C(=O)N3C)cc1,inactive: 71%
9,COc1cc(OC)c(NC(=O)N2CC3CCCN3c3ccccc32)cc1Cl (stereo not given),inactive: 89%
10,COCCCNc1nc(NCc2cccc(Cl)c2)c2cnn(C)c2n1,inactive: 58%
11,COc1ccc(-c2nc(CSc3nnc(C)n4c3cc3occc34)c(C)o2)cc1OC,inactive: 95%
12,CCc1ccc(-n2nc(C)c3c(C)cc(=O)n(CC(=O)Nc4ccc(C(C)=O)cc4)c32)cc1,inactive: 68%
13,CC(C)C(NS(=O)(=O)c1ccc2c(c1)oc(=O)n2C)C(=O)NCCc1ccccc1 (stereo not given),inactive: 90%
14,Cc1ccc(C)c(CN2C(=O)c3ccccc3S(=O)(=O)c3ccc(C(=O)NCCCN4CCCC(C)C4)cc32)c1 (stereo not given),inactive: 134%
15,O=C(Cn1ncc2c3ccccc3n(Cc3ccc(F)cc3)c2c1=O)NCCC1=CCCCC1,inactive: 81%
16,O=S(=O)(NN=C1CCCCC1)c1ccccc1,inactive: 106%
17,Cc1c(C(=O)Nc2ccc(C(C)C)cc2)sc2nc3n(c(=O)c12)CCC3,inactive: 90%
18,CCC(CC)c1nn2c(=O)cc(COc3ccc(NC(=O)c4ccc(C)cc4)cc3)nc2s1,inactive: 86%
19,Cc1nn(C(=O)c2ccc(Cl)cc2)c(C)c1S(=O)(=O)N1CCOCC1,inactive: 119%
20,Cn1c(NN)nc2sc3c(c2c1=O)CCCC3,inactive: 108%
21,Cc1ccc(CNc2ncnc3c2nnn3C)cc1,inactive: 49%
22,CC1CCC(NC(=O)CN2CCC(n3nnc4ccccc43)CC2)CC1 (stereo not given),inactive: 122%
23,COc1ccc(NC(=O)CC2C(=O)N(c3cccc(C)c3)C(=O)N2Cc2cccnc2)cc1 (stereo not given),inactive: 78%

row,Compound,survival
1,Cc1cn2c(=O)cc(COC(=O)c3cccc(NC(=O)c4ccccc4Cl)c3)nc2s1,inactive: 66%
2,CCc1ccc(CNC(=O)CN2C(=O)CSc3c2c(C)nn3-c2ccccc2)cc1,inactive: 125%
3,Cc1ccc(C)c(NC(=O)Nc2csc3c2CCCC3)c1,inactive: 81%
4,COc1ccccc1NC(=O)Cn1c(=O)n(Cc2nc(-c3ccccc3)no2)c(=O)c2ccccc21,inactive: 72%
5,COc1ccc2sc(N)nc2c1,inactive: 115%
6,CCOc1ccc2nc(N3CCCC(C(=O)NCc4ccc(C)cc4)C3)sc2c1 (stereo not given),inactive: 82%
7,CC(C)NC(=O)C1CCN(C(=O)N2CC(C)Oc3ccccc32)CC1 (stereo not given),inactive: 86%
8,CCC1=C(c2ccc(C)cc2)S(=O)(=O)N=C1N1CCC(C(=O)N2CCCCC2)CC1,inactive: 69%
9,O=C(COCc1cc(-c2cccs2)on1)Nc1cccc(O)c1,active: -3%
10,CCS(=O)(=O)NCCc1csc2nc(-c3ccc(C)cc3)nn12,inactive: 59%
11,Cc1ccc(-n2cnc3cc(C(=O)NC4CCCCCC4)ccc32)cc1Cl,inactive: 129%
12,Cc1cccc(-n2c(-c3ccco3)nc3c(cnn3-c3ccc(F)cc3)c2=O)c1,inactive: 95%
13,COC(=O)c1c(C)sc(-c2c(-c3ccc4c(c3)OCCO4)[nH]c3c2c(=O)[nH]c(=O)n3C)c1O,inactive: 72%
14,COc1ccc(-c2nn(C)c3sc(C(=O)N4CCN(c5cccc(Cl)c5)CC4)cc23)cc1OC,inactive: 59%
15,CC1CCc2c(sc(NC(=O)c3cc(-c4ccc(Br)cc4)on3)c2C(N)=O)C1 (stereo not given),inactive: 143%
16,O=C(O)Cn1nnnc1SCC(=O)Nc1ccc(F)cc1F,inactive: 108%
17,CCNc1nc(NC(C)(C)C)nc(N2CCCCC2)n1,inactive: 98%
18,COc1ccc(NC(=O)C2CCN(S(=O)(=O)c3c(C)noc3/C=C/c3ccc(C)cc3)CC2)cc1Cl,inactive: 84%
19,Cc1c(CNCCCc2ccccc2)c(C(=O)O)c(C)n1Cc1cccc(Cl)c1,inactive: 99%
20,Cc1ccc(OCc2cc(=O)n3cc(C)sc3n2)c(C)c1,inactive: 57%
21,Cc1ccc(NS(=O)(=O)c2ccc3[nH]c4c(c3c2)CCCCC4)cc1,inactive: 84%

# Reference: PubChem BioAssay AID463173 (ICCB-Longwood Screening Facility, Harvard Medical School, 2010)
